The other results are listed elsewhere or left out. The energies were worked out here from pooled read counts, against the library average; single values are noisy.
These sequences were tested against T1, Pho4 (S. cerevisiae) (UniProt P07270) (assay: relative binding free energy (BET-seq); higher = weaker binding). Conditions: reference: library average.
T1 sequence: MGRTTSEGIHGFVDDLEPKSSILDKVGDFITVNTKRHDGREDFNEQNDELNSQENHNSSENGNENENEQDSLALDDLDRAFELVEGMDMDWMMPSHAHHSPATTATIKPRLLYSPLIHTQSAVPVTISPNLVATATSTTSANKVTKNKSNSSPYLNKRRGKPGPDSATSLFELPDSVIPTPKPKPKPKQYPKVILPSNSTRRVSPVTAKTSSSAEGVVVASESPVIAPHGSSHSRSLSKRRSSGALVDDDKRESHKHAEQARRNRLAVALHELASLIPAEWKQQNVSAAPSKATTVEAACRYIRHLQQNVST

Row | Sequence | relative binding free energy
1 | AGTCGCACGTGGGCGT | -0.15 kcal/mol
2 | ATTTACACGTGATAGT | 0.17 kcal/mol
3 | GGGGACACGTGAGTCA | 0.24 kcal/mol
4 | GGGGGCACGTGGGTGC | -0.25 kcal/mol
5 | CTATGCACGTGAAGGT | 0.11 kcal/mol
6 | TGTTGCACGTGAGAAT | 0.22 kcal/mol
7 | CTTTGCACGTGTCGTA | 0.18 kcal/mol
8 | TGAATCACGTGTGAAT | 0.15 kcal/mol
9 | TGTTTCACGTGTCACG | 0.23 kcal/mol
10 | ATTCACACGTGTAATG | 0.18 kcal/mol
11 | GATTCCACGTGGTTAT | 0.17 kcal/mol
12 | GTATTCACGTGGTAAA | 0.13 kcal/mol
13 | TGACACACGTGGTGTA | -0.17 kcal/mol
14 | GTTGTCACGTGAGTCG | 0.34 kcal/mol
15 | ATAACCACGTGTTGGG | 0 kcal/mol
16 | GTAGTCACGTGTCATT | 0.14 kcal/mol
17 | TTATTCACGTGCATTA | 0.32 kcal/mol
18 | AGTGTCACGTGGGATA | -0.03 kcal/mol
19 | TGTAACACGTGGAGGG | -0.1 kcal/mol
20 | GGTAGCACGTGGCTGG | -0.02 kcal/mol
21 | GGGCGCACGTGTATGG | 0.01 kcal/mol
22 | TAAACCACGTGTGGGG | 0.05 kcal/mol
23 | AATATCACGTGGGAGT | 0.09 kcal/mol

Row | Sequence | relative binding free energy
24 | ATATGCACGTGTTAAT | 0.02 kcal/mol
25 | TTGTTCACGTGGGGCC | 0.26 kcal/mol
26 | TCATTCACGTGGATGT | 0.19 kcal/mol
27 | GTATTCACGTGAGGTG | 0.36 kcal/mol
28 | CAGTGCACGTGTATGA | 0.14 kcal/mol
29 | AGTCTCACGTGCTAGG | 0.25 kcal/mol
30 | CAATTCACGTGTGGTG | 0.27 kcal/mol
31 | GGTAGCACGTGTAACG | 0.04 kcal/mol
32 | ATAATCACGTGCGGTT | 0.21 kcal/mol
33 | ATTGACACGTGTGAGA | 0.15 kcal/mol
34 | CTTTTCACGTGGCGTT | 0.27 kcal/mol
35 | GGTTACACGTGGTACT | 0.21 kcal/mol
36 | TGTTTCACGTGCGGTT | 0.33 kcal/mol
37 | TGAAGCACGTGGATTA | -0.07 kcal/mol
38 | CGGGTCACGTGTCGGC | 0.16 kcal/mol
39 | TTGGTCACGTGAGCTT | 0.37 kcal/mol
40 | GTCAGCACGTGGGGCT | -0.2 kcal/mol
41 | GCGTTCACGTGATAGG | 0.36 kcal/mol
42 | TGTCTCACGTGAATTG | 0.38 kcal/mol
43 | TGTGCCACGTGTGGAC | 0.07 kcal/mol
44 | GGGGGCACGTGCTCTT | -0.11 kcal/mol
45 | TATCGCACGTGGTGAT | -0.12 kcal/mol
46 | TCGGTCACGTGGGCGA | -0.06 kcal/mol

Row | Sequence | relative binding free energy
47 | TATAGCACGTGTTAGG | -0.17 kcal/mol
48 | ATGATCACGTGGCGGG | 0 kcal/mol
49 | GGCTGCACGTGAGTAG | 0.2 kcal/mol
50 | TGTAGCACGTGGGAGG | -0.11 kcal/mol
51 | CGGTACACGTGAGTGT | 0.14 kcal/mol
52 | CTTGGCACGTGGAGGT | -0.03 kcal/mol
53 | CTGATCACGTGAGGGT | 0.21 kcal/mol
54 | CTTTGCACGTGCGGGC | 0.17 kcal/mol
55 | CAGTGCACGTGAGAGT | 0.35 kcal/mol
56 | TATGTCACGTGTGATG | 0.15 kcal/mol
57 | CGAGTCACGTGTGGTT | 0.11 kcal/mol
58 | TTAATCACGTGACTGA | 0.43 kcal/mol
59 | ATCGTCACGTGAGTGT | 0.06 kcal/mol
60 | TTACTCACGTGAATGG | 0.51 kcal/mol
61 | GGCTTCACGTGCGGTT | 0.34 kcal/mol
62 | TTTTACACGTGGGTAG | -0.08 kcal/mol
63 | AAGGGCACGTGGGCAG | -0.35 kcal/mol
64 | ATGACCACGTGGGGTG | -0.23 kcal/mol
65 | AAATGCACGTGCGGGA | -0.05 kcal/mol
66 | CTTGGCACGTGTAAGA | 0.09 kcal/mol
67 | TTTTGCACGTGGTTAA | -0.1 kcal/mol
68 | GATGGCACGTGATGGA | 0.17 kcal/mol
69 | GTCGTCACGTGTGTGT | 0.14 kcal/mol

Row | Sequence | relative binding free energy
70 | GGGTCCACGTGCGGAG | 0.13 kcal/mol
71 | TTTTACACGTGTTCTG | 0.15 kcal/mol
72 | TTTCCCACGTGTAGGG | -0.02 kcal/mol
73 | AGGCTCACGTGTTGCG | 0.27 kcal/mol
74 | GGCGGCACGTGGGGCT | -0.22 kcal/mol
75 | ATGTACACGTGTTAGG | 0.02 kcal/mol
76 | TGGAGCACGTGGTCGC | -0.13 kcal/mol
77 | AGTTCCACGTGGTATT | 0.02 kcal/mol
78 | AGTAACACGTGGGGTC | -0.03 kcal/mol
79 | TCTAGCACGTGGCGTG | -0.13 kcal/mol
80 | CGCAGCACGTGGTTTG | -0.12 kcal/mol
81 | TTGGTCACGTGTAGGG | 0.16 kcal/mol
82 | TGAGACACGTGACTGT | 0.22 kcal/mol
83 | CTTGTCACGTGGTTAG | -0.11 kcal/mol
84 | GTGTTCACGTGGTAAC | 0.19 kcal/mol
85 | GAGTTCACGTGCTGGA | 0.28 kcal/mol
86 | CGGGACACGTGGGGGA | -0.11 kcal/mol
87 | AGTTGCACGTGGAATT | 0.05 kcal/mol
88 | ATTGGCACGTGTACAG | -0.13 kcal/mol
89 | AGTTGCACGTGTGGAG | 0.08 kcal/mol
90 | ATAGTCACGTGCTGTT | 0.15 kcal/mol
91 | CCTGTCACGTGTTTTG | 0.05 kcal/mol
92 | TTGAGCACGTGGTCTG | -0.35 kcal/mol

Row | Sequence | relative binding free energy
93 | ATATACACGTGTAGAT | 0.16 kcal/mol
94 | GATGACACGTGTGCGG | -0.02 kcal/mol
95 | TAAAACACGTGGGATG | -0.07 kcal/mol
96 | GGTGCCACGTGTGTTT | -0.07 kcal/mol
97 | CAAAGCACGTGTTTTT | 0.12 kcal/mol
98 | GGAAGCACGTGCGTGT | -0.25 kcal/mol
99 | AGTAGCACGTGAATTA | 0.21 kcal/mol
100 | TGTGACACGTGTTGTC | -0.08 kcal/mol
101 | AGTCGCACGTGGGGGA | -0.23 kcal/mol
102 | TGCGGCACGTGATTGG | 0.02 kcal/mol
103 | ATGGACACGTGTAATA | 0.17 kcal/mol
104 | AGGGTCACGTGACGTC | 0.2 kcal/mol
105 | CGGGGCACGTGGGTTC | -0.14 kcal/mol
106 | GGGATCACGTGAGGCA | 0.35 kcal/mol
107 | GTGGTCACGTGGTCCG | 0.12 kcal/mol
108 | GGTGTCACGTGATTAG | 0.35 kcal/mol
109 | TTTGGCACGTGAACTG | 0.06 kcal/mol
110 | GGGGCCACGTGTGCGG | -0.09 kcal/mol
111 | GCGGCCACGTGGGGAG | -0.22 kcal/mol
112 | TGGCCCACGTGGGTTT | -0.17 kcal/mol
113 | TGTGACACGTGGCGGC | 0.06 kcal/mol
114 | GTTACCACGTGGTTAT | 0.08 kcal/mol
115 | GTTGGCACGTGCTGAT | -0.02 kcal/mol
